Assay results published in patent publication US20090291075A1, “BINDING AGENTS AND THEIR USE IN TARGETING TUMOR CELLS” (ALTAREX MEDICAL CORP., priority 2002, published 2009).

What was measured:
NIH:OVCAR-3 cells [1] = experiment: WST-1 assay for monitoring drug-induced cell death; conditions: for IC90: Homo sapiens, OVCAR-3, 72 h, read-out: IC90 (concentration to achieve 90% cell killing within 3 days)
NIH:OVCAR-3 cells [2] = experiment: Confocal microscopy for activated caspases (Phi-Phi-Lux, Propidium Iodide counterstain); format: cell-based
Description: NIH:OVCAR-3 cells were grown in tissue chamber slides (NUNC) and treated with chemotherapeutic drugs for 4-48 h, washed and stained with Phi-Phi-Lux for 1 h. Cells were washed briefly again, fixed and counterstained with Propidium Iodide prior to analysis by confocal microscopy (Zeiss, Germany).

CC[C@@]1(O)C(=O)OCc2c1cc1n(c2=O)Cc2cc3c(CN(C)C)c(O)ccc3nc2-1 [topotecan]
IC90 (NIH:OVCAR-3 cells [1]): 2.5 µg/mL (≈ 5.93 µM)

CC(=O)O[C@H]1C(=O)[C@@]2(C)[C@H]([C@H](OC(=O)c3ccccc3)[C@]3(O)C[C@H](OC(=O)[C@H](O)[C@@H](NC(=O)c4ccccc4)c4ccccc4)C(C)=C1C3(C)C)[C@]1(OC(C)=O)CO[C@@H]1C[C@@H]2O [paclitaxel]
time after treatment at which paclitaxel-induced apoptosis peaked (NIH:OVCAR-3 cells [2]; paclitaxel 1 μg/mL (IC90), caspase 3 substrate Phi-Phi-Lux): 4 h
cells dying (NIH:OVCAR-3 cells [2]; paclitaxel 1 μg/mL, 48 h): almost all cells were dying
IC90 (NIH:OVCAR-3 cells [1]): 1 µg/mL (≈ 1.17 µM)

N.N.O=C([O-])C1(C(=O)[O-])CCC1.[Pt+2] [carboplatin]
IC90 (concentration to achieve 90% cell killing within 3 days) (NIH:OVCAR-3 cells [1]; NIH:OVCAR-3 cells, WST-1 assay, optimum concentration used in the examples): 100 µg/mL

COc1cccc2c1C(=O)c1c(O)c3c(c(O)c1C2=O)C[C@@](O)(C(=O)CO)C[C@@H]3O[C@H]1C[C@H](N)[C@H](O)[C@H](C)O1 [doxorubicin]
IC90 (NIH:OVCAR-3 cells [1]): 100 µg/mL (≈ 184 µM)

In brackets after ≈: the same amount, converted by molar mass.
